From article PMC4336329 (PLoS ONE, 2015)
Out of some 310,000 compounds screened, about 2,200 (0.71%) showed an effect of 50% or more. Effects have a minus sign here. The list shows a part of the results.

What follows are compounds tested against human ether-à-go-go-related gene (hERG) potassium channel (human, UniProt Q12809) (assay: primary screen, population patch clamp on CHO cells stably expressing hERG).
Sequence of human ether-à-go-go-related gene (hERG) potassium channel (Q12809 whole entry, looked up): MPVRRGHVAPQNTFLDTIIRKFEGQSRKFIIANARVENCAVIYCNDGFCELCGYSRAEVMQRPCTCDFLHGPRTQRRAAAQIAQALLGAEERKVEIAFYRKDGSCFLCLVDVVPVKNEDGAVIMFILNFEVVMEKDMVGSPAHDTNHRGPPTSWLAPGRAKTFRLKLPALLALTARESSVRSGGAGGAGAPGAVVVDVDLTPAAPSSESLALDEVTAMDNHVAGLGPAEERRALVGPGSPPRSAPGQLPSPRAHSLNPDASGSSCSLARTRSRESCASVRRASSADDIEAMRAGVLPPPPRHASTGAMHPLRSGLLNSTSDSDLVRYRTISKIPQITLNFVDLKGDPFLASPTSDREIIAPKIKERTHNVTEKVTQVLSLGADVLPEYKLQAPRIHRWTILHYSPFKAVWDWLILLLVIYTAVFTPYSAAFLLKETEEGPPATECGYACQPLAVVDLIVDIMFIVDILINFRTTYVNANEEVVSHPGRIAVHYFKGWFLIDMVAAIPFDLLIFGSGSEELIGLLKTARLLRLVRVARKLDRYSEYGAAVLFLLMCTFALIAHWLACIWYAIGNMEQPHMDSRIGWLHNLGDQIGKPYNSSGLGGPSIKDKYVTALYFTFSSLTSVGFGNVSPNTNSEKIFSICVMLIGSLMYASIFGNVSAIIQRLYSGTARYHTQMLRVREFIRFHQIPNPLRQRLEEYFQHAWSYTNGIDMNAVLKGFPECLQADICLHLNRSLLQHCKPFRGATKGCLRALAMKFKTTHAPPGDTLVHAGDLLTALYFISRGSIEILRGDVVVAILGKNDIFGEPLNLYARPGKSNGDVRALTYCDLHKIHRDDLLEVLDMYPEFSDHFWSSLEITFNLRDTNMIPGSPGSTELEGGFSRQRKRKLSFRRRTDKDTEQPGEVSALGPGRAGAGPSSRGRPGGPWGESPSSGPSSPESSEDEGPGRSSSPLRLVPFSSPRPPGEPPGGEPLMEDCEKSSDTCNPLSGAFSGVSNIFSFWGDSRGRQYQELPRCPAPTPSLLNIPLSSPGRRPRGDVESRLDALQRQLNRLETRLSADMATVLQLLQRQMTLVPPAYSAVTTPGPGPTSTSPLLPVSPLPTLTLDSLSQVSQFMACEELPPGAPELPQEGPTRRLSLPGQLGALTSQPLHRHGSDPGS
`Cn1c(=O)c2[nH]c(CNc3ccc(C(=O)O)cc3)nc2n(C)c1=O` was tested, and the “hERG current change (%, negative = inhibition) at 1uM” value was 3.56%.
`COc1ccc(-c2onc3ccc(Br)cc23)cc1` was tested, and the “hERG current change (%, negative = inhibition) at 1uM” value was 15.6%.
In the case of `O=C(NCCc1ccc(F)cc1)c1n[nH]c2ccccc12`, the “hERG current change (%, negative = inhibition) at 1uM” value is reported as -0.0502%.
`CCc1noc(C)c1C(=O)Nc1ccccc1C(C)(C)C` was tested, and the “hERG current change (%, negative = inhibition) at 1uM” value was 14%.
`CCN(CC)CCN1C(=O)C(=O)/C(=C(/O)c2ccc(OC(C)C)cc2)C1c1ccncc1` (centres unmarked) was tested, and the “hERG current change (%, negative = inhibition) at 1uM” value was 18.1%.
With `CN=C1S/C(=C\c2cn(CC(=O)OC)c3ccccc23)C(=O)N1C` the “hERG current change (%, negative = inhibition) at 1uM” value was 5.75%.
`Cc1nnc(SCc2ccc([N+](=O)[O-])cc2)[nH]c1=O` was tested, and the “hERG current change (%, negative = inhibition) at 1uM” value was 8.32%.
`CCCC1(CCC)NC(=O)N(CC(=O)Nc2ccccc2OC)C1=O` was tested, and the “hERG current change (%, negative = inhibition) at 1uM” value was 15.6%.
For `COc1ccc(CC(=O)NCC2CCCCC2)cc1OC`, the “hERG current change (%, negative = inhibition) at 1uM” value was 1.41%.
For `CCCCCCCCS(=O)c1sc2nc(C)cc(C)c2c1N` (centres unmarked), the “hERG current change (%, negative = inhibition) at 1uM” value was 1.85%.
In the case of `N#Cc1cc2c(nc1SCC(O)CS(=O)(=O)Cc1ccc(Cl)cc1)CCCC2` (centres unmarked), the “hERG current change (%, negative = inhibition) at 1uM” value is reported as 3.87%.
In the case of `CN(C)c1ccc(S(=O)(=O)NCC(=O)NCC2CCCCC2)cc1[N+](=O)[O-]`, the “hERG current change (%, negative = inhibition) at 1uM” value is reported as 11.7%.
`O=C(NNc1nc(-c2ccccc2)c2cc(Br)ccc2n1)c1ccc(S(=O)(=O)N2CCOCC2)cc1` was tested, and the “hERG current change (%, negative = inhibition) at 1uM” value was 8.33%.
In the case of `FC(F)(F)c1ccc2c(c1)ncn2C1CCN(Cc2nnnn2C2CCCCC2)CC1`, the “hERG current change (%, negative = inhibition) at 1uM” value is reported as -10.5%.
With `COc1ccc(CCNC(=O)Cn2cnc3ccccc3c2=O)cc1OC` the “hERG current change (%, negative = inhibition) at 1uM” value was 17%.
For `COc1cc(NC(=O)CN2CCCCCC2)cc(OC)c1`, the “hERG current change (%, negative = inhibition) at 1uM” value was 13.5%.
`CCc1ccc(/C=C2\C(=N)N3N=C(CC(=O)N4CCCCC4)SC3=NC2=O)cc1` was tested, and the “hERG current change (%, negative = inhibition) at 1uM” value was 18.8%.
`O=C(Nc1ncc(Cc2ccc(C(F)(F)F)cc2)s1)c1ccc(-c2cccc([N+](=O)[O-])c2)o1` was tested, and the “hERG current change (%, negative = inhibition) at 1uM” value was 13.5%.
With `c1ccc(CNCCc2c[nH]c3ccccc23)cc1` the “hERG current change (%, negative = inhibition) at 1uM” value was 7.06%.
In the case of `COC(=O)c1c(C)[nH]c(C)c1C(=O)c1ccccc1Cc1ccccc1`, the “hERG current change (%, negative = inhibition) at 1uM” value is reported as 18%.
`COc1ccc(-c2nnc(SCC(=O)NC(C)c3ccccc3)o2)cc1OC` (centres unmarked) was tested, and the “hERG current change (%, negative = inhibition) at 1uM” value was 9.61%.
With `COc1ccc2nc(SCc3cccnc3)c(C#N)cc2c1` the “hERG current change (%, negative = inhibition) at 1uM” value was 6.28%.
`CCc1nnc(NC(=O)CSc2nnc(-c3ccoc3C)n2-c2cccc(C)c2)s1` was tested, and the “hERG current change (%, negative = inhibition) at 1uM” value was 9.21%.
In the case of `CN(CC(=O)Nc1ccc(OC(F)(F)F)cc1)C(=O)C1CCC1`, the “hERG current change (%, negative = inhibition) at 1uM” value is reported as 11.4%.
In the case of `O=C(CSc1nnc(Cc2cc(=O)[nH]c(=O)[nH]2)n1-c1ccc(Cl)cc1)NC1CCCC1`, the “hERG current change (%, negative = inhibition) at 1uM” value is reported as 14%.
With `COC(=O)C1=C(C)NC2=C(C(=O)CC(C)(C)C2)C1c1cnn(C)c1C` (centres unmarked) the “hERG current change (%, negative = inhibition) at 1uM” value was 17%.
`O=C(O)c1cc2c(s1)-c1ccccc1OC2` was tested, and the “hERG current change (%, negative = inhibition) at 1uM” value was 15.5%.
In the case of `O=C(CSc1nc2ccccc2c(=O)n1CC1CCCO1)N1CCN(c2ccccc2)CC1` (centres unmarked), the “hERG current change (%, negative = inhibition) at 1uM” value is reported as -41.6%.
With `O=C(Nc1ccc2c(c1)OCCO2)C1CCN(S(=O)(=O)c2ccc(Br)s2)CC1` the “hERG current change (%, negative = inhibition) at 1uM” value was 14.8%.
`COc1ccc(S(=O)(=O)NCc2c(-c3ccccc3)noc2C)c(OC)c1` was tested, and the “hERG current change (%, negative = inhibition) at 1uM” value was 3.4%.
`Cl.OCCN(CCO)CC(O)CN1c2ccccc2Sc2ccccc21` (centres unmarked) was tested, and the “hERG current change (%, negative = inhibition) at 1uM” value was 1.67%.
For `COc1ccc(CC(=O)Nc2cc3oc4ccccc4c3cc2OC)cc1`, the “hERG current change (%, negative = inhibition) at 1uM” value was -4.28%.
For `N#CC(=C=[N-])C1=C(C#N)C(c2ccccc2F)C([n+]2ccccc2)C(O)(C2CC2)N1` (centres unmarked), the “hERG current change (%, negative = inhibition) at 1uM” value was 16.1%.
With `O=S(=O)(CCN(CCS(=O)(=O)C(F)(F)F)CC1CCCO1)C(F)(F)F` (centres unmarked) the “hERG current change (%, negative = inhibition) at 1uM” value was -8.93%.
In the case of `O=C(c1cn(-c2ccc(Cl)c(Cl)c2)nn1)C1CC1`, the “hERG current change (%, negative = inhibition) at 1uM” value is reported as 12.3%.
In the case of `O=C(CSc1ccccc1)NCCSCc1ccccc1`, the “hERG current change (%, negative = inhibition) at 1uM” value is reported as 14.1%.
With `Cc1ccc(NC(=O)/C(=C\c2ccc3c(c2)OCO3)NC(=O)c2ccco2)cc1` the “hERG current change (%, negative = inhibition) at 1uM” value was 8.58%.
`CCCC(C(=O)NC1CCCC1)N(CC1CCCO1)C(=O)c1snc(C(N)=O)c1N` (centres unmarked) was tested, and the “hERG current change (%, negative = inhibition) at 1uM” value was -24.4%.
In the case of `O=C(CCNC(=O)c1ccc(Cl)cc1)NC1CCCc2ccccc21` (centres unmarked), the “hERG current change (%, negative = inhibition) at 1uM” value is reported as 8.63%.
For `Cc1cccc(NC(=O)C(=O)NCCCN2CCOCC2)c1`, the “hERG current change (%, negative = inhibition) at 1uM” value was 9.45%.
`Cc1nc(N)nc(Nc2ccc(C#N)cc2)c1Br` was tested, and the “hERG current change (%, negative = inhibition) at 1uM” value was 8.67%.
`CCOc1ccccc1NC(=O)CN1C(=O)NC(Cc2c[nH]c3ccccc23)C1=O` (centres unmarked) was tested, and the “hERG current change (%, negative = inhibition) at 1uM” value was -2.29%.
In the case of `C#CCOc1c(Cl)cc(/C=N/O)cc1OC`, the “hERG current change (%, negative = inhibition) at 1uM” value is reported as 11.2%.
`COc1ccc(S(=O)(=O)c2c[nH]c(=S)[nH]c2=O)cc1Cl` was tested, and the “hERG current change (%, negative = inhibition) at 1uM” value was 16.4%.
